About 2,200 (0.71%) of roughly 310,000 compounds showed an effect of 50% or more. The effect is printed as a negative number. The list shows a part of the results.
The molecules below were run against human ether-à-go-go-related gene (hERG) potassium channel (human, UniProt Q12809) (assay: primary screen, population patch clamp on CHO cells stably expressing hERG).
human ether-à-go-go-related gene (hERG) potassium channel, sequence (Q12809 whole entry, looked up): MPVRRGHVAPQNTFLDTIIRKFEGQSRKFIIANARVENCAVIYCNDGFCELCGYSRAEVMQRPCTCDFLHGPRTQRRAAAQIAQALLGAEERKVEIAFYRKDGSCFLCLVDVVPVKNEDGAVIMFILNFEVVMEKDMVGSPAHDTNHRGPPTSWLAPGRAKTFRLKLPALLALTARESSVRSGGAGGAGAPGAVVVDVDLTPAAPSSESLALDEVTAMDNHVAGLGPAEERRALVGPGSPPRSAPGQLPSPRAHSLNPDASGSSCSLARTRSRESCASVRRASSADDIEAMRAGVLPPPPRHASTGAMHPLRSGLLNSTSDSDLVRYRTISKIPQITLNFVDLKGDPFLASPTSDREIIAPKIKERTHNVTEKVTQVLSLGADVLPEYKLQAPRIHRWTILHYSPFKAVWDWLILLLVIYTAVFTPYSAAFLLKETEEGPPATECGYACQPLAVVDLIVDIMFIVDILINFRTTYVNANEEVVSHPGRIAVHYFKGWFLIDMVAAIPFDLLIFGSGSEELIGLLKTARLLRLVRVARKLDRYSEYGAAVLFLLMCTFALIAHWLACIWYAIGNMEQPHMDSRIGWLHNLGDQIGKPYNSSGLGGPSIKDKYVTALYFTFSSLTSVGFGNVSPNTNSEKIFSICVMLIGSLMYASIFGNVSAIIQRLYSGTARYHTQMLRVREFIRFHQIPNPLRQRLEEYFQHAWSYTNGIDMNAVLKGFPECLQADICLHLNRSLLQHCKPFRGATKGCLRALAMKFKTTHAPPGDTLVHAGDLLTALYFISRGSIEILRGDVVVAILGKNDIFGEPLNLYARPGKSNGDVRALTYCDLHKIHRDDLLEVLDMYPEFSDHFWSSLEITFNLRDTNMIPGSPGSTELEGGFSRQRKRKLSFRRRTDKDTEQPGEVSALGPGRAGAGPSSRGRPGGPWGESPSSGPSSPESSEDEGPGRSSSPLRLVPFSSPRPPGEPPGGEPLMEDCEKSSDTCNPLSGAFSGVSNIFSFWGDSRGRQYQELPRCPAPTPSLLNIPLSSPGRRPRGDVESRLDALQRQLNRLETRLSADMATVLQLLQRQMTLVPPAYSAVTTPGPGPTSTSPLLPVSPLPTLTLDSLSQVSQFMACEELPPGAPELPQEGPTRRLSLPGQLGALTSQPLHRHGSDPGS

Compound	hERG current change (%, negative = inhibition) at 1uM [%]
O=C(COC(=O)c1ccc(Br)o1)NCc1cccs1	4.96
CCC1(c2ccc(F)cc2)NC(=O)N(CC(=O)NCc2ccc(F)cc2)C1=O (stereo not drawn)	-4.62
CCOc1ccc(C(=O)OCCN(CC)CC)cc1.Cl	-13.5
Cc1ccc(-c2nnn(CC(=O)N(CCO)C(C(=O)NC3CCCCC3)c3ccncc3)n2)o1 (stereo not drawn)	15
O=C(CN1C(=O)/C(=C2\SC(=S)N(CCS(=O)(=O)O)C2=O)c2ccccc21)Nc1cccc(Br)c1	-52.8
CS(=O)(=O)N1CCN(C(=O)CCC2CCCC2)CC1	14.9
c1ccc(-c2nc(-c3ccco3)n3ccccc23)cc1	12.2
NC(=O)CC(NC(=O)c1ccc(Br)cc1)c1ccc(NCc2ccc(F)cc2)c([N+](=O)[O-])c1 (stereo not drawn)	0.593
COCC(=O)NCCc1nc2ccccc2[nH]1	6.4
O=C(Nc1ccc(N2CCOCC2)c(Cl)c1)c1ccc(S(=O)(=O)N2CCOCC2)cc1	4.6
COC(=O)c1ccc(NC(=O)Nc2ccccc2F)cc1	11.7
O=[N+]([O-])c1cccc(N/N=C/c2cccc(O)c2O)c1	9.3
C=CCNC(=O)CC1Nc2c3ccccc3nc(=S)n2C1=O (stereo not drawn)	11.7
CC(C)(C)OC(=O)NNC(=O)c1cccs1	9.97
Fc1ccc(NC(=S)N2CCN(c3cccc(C(F)(F)F)c3)CC2)cc1	13.8
COc1ccccc1N1CCN(C(=O)c2sc3nc(C)nc(N4CCN(c5ccccn5)CC4)c3c2C)CC1	5.06
CCOC(=O)Cc1nc(-c2ccc(Cl)cc2)n[nH]1	14.3
Cc1cc(C)nc(SCC(=O)Nc2nonc2N)n1	20.3
O=C1/C(=C\c2ccc(Br)cc2)SC(=S)N1NS(=O)(=O)c1ccccc1	15.8
COc1ccc(CC(=O)N(C)C2CCCN(Cc3ccccc3F)C2)cc1OC (stereo not drawn)	9.59
CC(C)(C)c1ccc2c(c1)OC(C(=O)N/N=C\c1ccc(-c3cccc(C(=O)O)c3)o1)CO2 (stereo not drawn)	10.4
CC1(C)CC(=O)C(C2C3=C(CC(C)(C)CC3=O)Oc3ccccc32)=C(O)C1 (stereo not drawn)	12.1
COc1cc(SC)ccc1C(=O)Nc1ccc2c(c1)OCCO2	-7.3

Compound	hERG current change (%, negative = inhibition) at 1uM [%]
CN(Cc1cccs1)C(=O)c1cccc(S(=O)(=O)N2CCCCCC2)c1	-9.79
COc1cccc(CN(C(=O)c2cccc(OC)c2)C2CCS(=O)(=O)C2)c1 (stereo not drawn)	2.78
Cc1cc(C)nc(NS(=O)(=O)c2ccc(NC(=O)COc3ccccc3F)cc2)n1	2.47
Nc1nsnc1C(=O)NCCO	18.3
CCOC(=O)c1ccc(S(=O)(=O)N2CCN(C(C)=O)CC2)cc1	-4.77
N#Cc1ccc(C2N=C(c3ccccc3)NO2)cc1 (stereo not drawn)	5.42
CCCCCOC(=O)C1=C(C)NC(=O)NC1c1ccc([N+](=O)[O-])cc1 (stereo not drawn)	19.1
CN(CC(=O)Nc1ccccc1Br)C(=O)CCc1nc2ccccc2c(=O)[nH]1	1.47
N#CCCCSc1ncccc1-c1nc2ccccc2[nH]1	-3.28
Cc1ccc(C(=O)O/N=C(\N)Cc2ccc([N+](=O)[O-])cc2)c(Cl)c1	3.35
CN(C)c1ccc2c(c1)OC(N)=C(C#N)C2c1cccc(F)c1 (stereo not drawn)	15.1
COc1ccc(N/N=C(/Oc2ccc([N+](=O)[O-])cc2)C(C)=O)cc1	-8.95
COc1cccc(CNC(=O)c2cccc(NC(=O)CC3SC(N4CCCCC4)=NC3=O)c2)c1 (stereo not drawn)	17.1
N#Cc1c(N2CCCC2)nc(N)c2c(N)nc(N3CCCC3)cc12	13.5
O=C(/C=C/c1ccco1)NCc1ccco1	15.8
N#Cc1ccc(/C=C(\C(=O)C(=O)O)c2ccc3ccccc3n2)cc1	10.4
O=[N+]([O-])c1cccc(-c2cc3ccccc3[nH]2)c1	16.7
Cc1ccc([N+](=O)[O-])c(OCC(O)CNC(C)(C)C)c1.Cl (stereo not drawn)	7.78
COc1ccc(CNC2c3ccccc3-c3ccccc32)cc1OC	-4.19
O=C(O)CSCC(=O)N1CCCN(c2ccc(C(F)(F)F)cn2)CC1	12.5
COc1ccccc1Nc1nc(-c2cccs2)cs1	-0.33
c1ccc(Cn2cc(CN3CCCCO3)c(-c3ccc4c(c3)OCO4)n2)cc1	18.9
